# Measurements taken from publication PMC6919601, “Identification of Plasmodium dipeptidyl aminopeptidase allosteric inhibitors by high throughput screening” (PLoS ONE, 2019).
# In all, about 110,000 compounds went through this assay and about 230 (0.21%) showed an effect of 50% or more. This is one part of the list.
# Target: DPAP1 (Plasmodium falciparum, UniProt Q8IIJ9)
# Test: primary screen, percent inhibition; read by cleavage of a fluorogenic dipeptide substrate; higher = more effect of the substance
# Set-up: species or system P. falciparum D10 trophozoite lysates; single well
# 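Note: 30 min substrate incubation versus DMSO and 10 µM JCP410 controls.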
# Chain of DPAP1 (Q8IIJ9 whole entry, looked up): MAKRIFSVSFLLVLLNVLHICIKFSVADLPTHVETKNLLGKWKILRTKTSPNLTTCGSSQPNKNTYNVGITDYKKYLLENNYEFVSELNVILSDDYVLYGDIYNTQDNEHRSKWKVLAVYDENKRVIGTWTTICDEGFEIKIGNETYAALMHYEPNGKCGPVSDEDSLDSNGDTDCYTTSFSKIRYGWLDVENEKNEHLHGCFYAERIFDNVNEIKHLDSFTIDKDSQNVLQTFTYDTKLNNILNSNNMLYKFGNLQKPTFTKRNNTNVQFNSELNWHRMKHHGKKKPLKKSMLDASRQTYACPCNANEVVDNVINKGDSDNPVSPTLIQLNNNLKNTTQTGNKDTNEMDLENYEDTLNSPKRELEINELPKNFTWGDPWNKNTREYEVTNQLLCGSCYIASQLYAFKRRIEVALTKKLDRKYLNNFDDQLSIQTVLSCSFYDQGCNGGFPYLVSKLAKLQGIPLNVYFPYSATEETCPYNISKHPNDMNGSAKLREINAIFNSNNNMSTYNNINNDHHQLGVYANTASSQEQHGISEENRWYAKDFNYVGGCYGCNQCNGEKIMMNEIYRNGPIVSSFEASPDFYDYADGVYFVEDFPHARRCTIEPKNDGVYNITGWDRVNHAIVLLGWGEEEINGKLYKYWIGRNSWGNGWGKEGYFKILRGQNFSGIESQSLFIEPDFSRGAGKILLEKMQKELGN
row,Structure (SMILES),% Inhibition @ 10 uM [%]
1,COc1ccc(/C=C2\Cc3ccccc3C2=O)cc1Cn1cccn1,-2.12
2,COc1ccc(C(=O)NC2CCC(NC(=O)c3ccc(OC)cc3)CC2)cc1 (stereo not drawn),2.46
3,Nc1c2c(nc3ccccc13)CCN(Cc1ccccc1)C2,-0.0678
4,Cc1cccc(C(=N)NOC(=O)COc2ccccc2C)c1,-11.2
5,COC(=O)C1=CN(C(C)C)C=C(C(=O)OC)C1c1cc2c(cc1Br)OCO2,1.86
6,CCOC(=O)N1CCN(C(=O)Cn2ncc3ccsc3c2=O)CC1,-6.52
7,O=C(O)/C=C\C(=O)N1CCN(c2nc(-c3ccccc3)c3cc(Br)ccc3n2)CC1,-2.87
8,CCN(CC)C(=O)c1c(NC(=O)c2ccco2)sc2c1CCC(C)C2 (stereo not drawn),-3.9
9,CCC1CCC(NCCN(C)C)CC1 (stereo not drawn),-3.42
10,CCc1c(C)c2cc3c(c(C)c2oc1=O)OCN(Cc1ccc2c(c1)OCO2)C3,0.895
11,NC(=O)c1ccc(NC(=O)C2CC=CCC2C(=O)O)cc1 (stereo not drawn),-3.92
12,O=C(N1CCOCC1)C1(c2ccccc2)CCCC1,-3.09
13,C=CCOc1ccc(C(=O)C2=C(O)C(=O)N(CCCN3CCOCC3)C2c2ccccc2F)cc1C (stereo not drawn),-1.93
14,NC(=O)c1ccc(NC(=O)CN(Cc2ccc(Cl)c(Cl)c2)S(=O)(=O)c2ccccc2)cc1,7.97
15,Cc1cc(C)c2c(n1)sc1[nH]nnc12,-1.85
16,CCC1=NC(c2ccc(OC)c(OC)c2)N(O)C1(C)C (stereo not drawn),2.03
17,Cc1[nH]c2ccccc2c1CC/N=C1/C=C(O)CC(C)(C)C1,-5.79
18,Cc1cc(C)n2nc(SCC(=O)NC3CCCc4ccccc43)nc2n1 (stereo not drawn),-2.26
19,Cc1cn(CCOc2ccccc2)c(=O)n(Cc2ccccc2)c1=O,0.883
20,CCN(CC)CCCNc1ncnc2onc(-c3ccc(Cl)cc3)c12,2.74
21,C=CCn1c(SCCC)nc2c1c(=O)n(C)c(=O)n2C,4.11
22,COc1ccccc1-c1cc(C(=O)N2CCCCCC2)no1,-3.36
23,CCOc1ccc(C(=O)NC(CC(C)C)C(=O)NCC#N)cc1 (stereo not drawn),-12
24,Cc1cccc(N2CCN(CC(O)COc3ccc(Cl)cc3)CC2)c1 (stereo not drawn),-1.22
25,O=C1CC(c2ccccc2)=Nc2cc3ccccc3cc2N1,-0.0217
26,NC(N)=NCCCC(N)C(=O)NC(Cc1ccccc1)C(=O)O (stereo not drawn),3.51
27,COc1cc(CN2CCN(c3ccc(C(C)=O)cc3)CC2)cc(OC)c1,-3.15

row,Structure (SMILES),% Inhibition @ 10 uM [%]
1,CCCN1C(=O)/C(=C/c2ccco2)S/C1=N/c1ccc(OC)cc1,-10.7
2,Cc1ccc(CCNC(=O)C2CCN(C(=O)c3cc4sccc4n3C)CC2)cc1,-5.19
3,Cc1ccc2onc(CNC(=O)Nc3ccc(Cl)cn3)c2c1,-5.54
4,COc1ccc(C(=O)Nc2c(Cl)cc(Cl)cc2C(=O)NCc2cccnc2)cc1,1.15
5,N#CC1=C(N)Oc2cc(N)ccc2C1c1ccc(O)cc1 (stereo not drawn),-3.13
6,Cc1ccc(CCN2CC(C(=O)NCCCN3CCC(C)CC3)CC2=O)cc1 (stereo not drawn),1.62
7,O=C(c1ccncc1)N1CCN(Cc2ccc3c(c2)OCO3)CC1,0.611
8,CN1CCN(C(=O)c2ccc(CNS(=O)(=O)c3cccc(Cl)c3)cc2)CC1,0.214
9,Sc1nnc(-c2ccco2)n1-c1ccccc1,10.4
10,COc1ccc(C(=O)NC2(C(F)(F)F)C(=O)N(Cc3ccccc3)C3=C2C(=O)CC(C)(C)C3)cc1 (stereo not drawn),3.54
11,COc1cc(C2C3=C(O)CCCC3=NC3=C2C(=O)CCC3)cc(Br)c1OC (stereo not drawn),-4.4
12,Cc1cc(C)c(C)c(OCCCCCCN2CCOCC2)c1,1.83
13,COc1ccc(NC(=O)C2CC2)c2ncccc12,-3.09
14,CSc1ccc(S(=O)(=O)NCc2ccncc2)cc1,18.3
15,CC(NC(=O)c1ccccc1)c1ccccc1 (stereo not drawn),-6.25
16,Cc1cccc(/C=C2\Cc3ccccc3C2=O)c1,1.83
17,Cc1ccc(SCCNC(=O)CN2C(=O)c3ccccc3S2(=O)=O)cc1,-5.07
18,CCC(C)c1ccccc1NS(=O)(=O)c1cccc2cccnc12 (stereo not drawn),-2.17
19,CCOc1ccccc1N1CCN(Cc2ccc(Br)o2)CC1,-4.61
20,O=c1sc2ccccc2n1CN1CCOCC1,1.91
21,CCC(CC)NC(=O)c1cccc(NC(=O)C(C)C)c1,-13
22,c1ccc(-c2[nH]nc3ccccc23)cc1,-1.99
23,O=C(NCCCCc1ccccc1)C(=O)NCC1CCCO1 (stereo not drawn),0.0719
24,COc1ccc(NC(=O)c2ccc(S(=O)(=O)N(C)C)cc2)c2ccccc12,3.35
25,Cc1cc2ccccc2n1CCNC(=O)C(C)Oc1ccccc1 (stereo not drawn),-8.91
26,CC(C)CC(C(=O)NCC1CCCO1)N1C(=O)c2cc(Cl)c(Cl)cc2C1=O (stereo not drawn),4.25
27,Cc1c(-c2ccc(F)cc2)nc(N)c(C#N)c1-c1cccs1,-1.33

row,Structure (SMILES),% Inhibition @ 10 uM [%]
1,COCc1cc(C)nc2sc3c(c12)NC(c1ccco1)N(Cc1ccccc1)C3=O (stereo not drawn),-4.28
2,O=C1C2C3C=CC(C3)C2C(=O)N1c1cccc(N2C(=O)C3C4C=CC(C4)C3C2=O)n1 (stereo not drawn),4.77
3,CC(C)CCn1c(=O)[nH]c2ncccc2c1=O,4.88
4,Cc1cc(C(=O)N2CCC(C)CC2)on1,-3.45
5,COc1ccc(-c2c3c(nc4sc(C#N)c(N)c24)C(=O)c2ccccc2-3)cc1,7.19
6,CCOc1ccc(C2=NN(c3ccccc3F)C(c3cccs3)C2)cc1 (stereo not drawn),0.827
7,CC1CCC(C(C)C)C(OC(=O)NC(=O)C(F)(F)F)C1 (stereo not drawn),-3.64
8,CCOc1cccc(C(=O)Nc2ccc(N3CCN(S(C)(=O)=O)CC3)cc2)c1,-0.519
9,CCc1ccc(C(=O)Nc2cc(C)ccc2C)s1,1.8
10,CC(C)c1ccc(NC(=O)C(c2ccccc2)c2ccccc2)cc1,-0.127
11,COc1ccccc1-c1ccc(C=C2C(=O)OC(C)(C)OC2=O)o1,-1.93
12,CCN(CC)C(=O)c1sc(NC(=O)c2ccc(OC)cc2OC)c(C#N)c1C,-4.41
13,Fc1ccc(CN2CCN(c3cccc(Cl)c3)CC2)c(F)c1,-7.49
14,O=C(O)c1cnc2sccn2c1=O,3.27
15,CCN(CC)CCCOc1ccc(Cl)c(C)c1,2.16
16,COc1ccccc1CNC(=O)CSc1ccc(C)cc1,3.84
17,COc1ccc(C2C(C#N)=C(N)Oc3[nH]nc(-c4ccc(Br)cc4)c32)cc1OC (stereo not drawn),1.35
18,O=C(CCCC(=O)Nc1ccc(F)c(Cl)c1)Nc1ccc(F)c(Cl)c1,1.57
19,CC(=O)Nc1cccc(-c2cn3ccccc3n2)c1,-1.82
20,CCc1nn(C(C)C(=O)NCCc2ccccc2)c(=O)c2cc3occc3n12 (stereo not drawn),1.38
21,Cc1nc(OCc2ccccc2)c2sc3nc4c(cc3c2n1)COC(C)(C)C4,14
22,CCCSc1nc(O)cc(=O)n1CC,-6.12
23,CCCc1ccc(S(=O)(=O)NCCc2ccncc2)cc1,-3.49
24,CCOc1ccc(NC(=O)CSCc2ccc(Br)cc2)cc1,2.01
25,COc1cccc(C2C3=C(O)CC(C)(C)CC3=Nc3nc(SCCN4CCOCC4)nc(O)c32)c1 (stereo not drawn),1.02
26,Cc1cccc(CN2CCC(CNC(=O)C3c4ccccc4C(=O)N(C)C3c3cccs3)CC2)c1 (stereo not drawn),-4.8
27,Cc1oc(-c2ccccc2F)nc1CS(=O)(=O)CC(=O)NC1CCCC(C)C1C (stereo not drawn),-0.138

row,Structure (SMILES),% Inhibition @ 10 uM [%]
1,O=C(c1cc(-c2ccc(Cl)c(Cl)c2)on1)N1CCCCCC1,-7.85
2,CCn1c2ccccc2c2cc(CNc3cccc(F)c3)ccc21,-1.81
3,O=S(=O)(c1ccccc1)n1nc(-c2ccco2)nc1NCc1ccccc1Cl,2.21
4,Cc1ccc(NC(=O)CCCC(=O)Nc2ccc(C)c(C)c2)cc1C,1.37
5,N#C/C(=C\c1ccco1)c1nc(-c2ccccc2)cs1,1.08
6,CCOCCCNC(=O)Cn1nc(Cc2cccnc2)c2ccccc2c1=O,-2.92
7,CCOC(=O)N1CCN(S(=O)(=O)c2ccc(C)c(C)c2C)CC1,-1.84
8,CN1CCN(c2nn3nnnc3c3ccccc23)CC1,3.87
9,CCN(C(=O)c1cc([N+](=O)[O-])ccc1Cl)c1ccccc1,-1.86
10,Brc1cccc(-c2nnc(CN3CCOCC3)o2)c1,1.49
11,O=C(O)CCS(=O)(=O)c1ccc2nc(O)oc2c1,-7.66
12,CCCN(CCO)Cc1ccccn1,-0.446
13,O=C(O)/C(=N\O)c1ccc(CCc2ccccc2)s1,3.25
14,CCN(CC)CC(=O)Nc1ccc(Br)cc1C(=O)c1ccccc1,-3.76
15,COc1ccc(C2C(C(=O)c3ccc(C)cc3)=C(O)C(=O)N2CC(C)C)c(OC)c1 (stereo not drawn),0.408
16,O=C(O)C1CC(O)CN1S(=O)(=O)c1cccc2nsnc12 (stereo not drawn),-2.17
17,O=C(c1ccc(CN2CCOCC2)o1)C(F)(F)F,-2.48
18,CCC(C)C(/N=C/C1=C(O)OC(C)(C)OC1=O)C(=O)O (stereo not drawn),-1.47
19,COc1ccc(-c2cc(C(F)(F)F)nc(SCC(=O)Nc3cc(C)on3)n2)cc1OC,4.08
20,Cc1ccc(S(=O)(=O)N(CC(=O)NCc2ccccn2)c2ccccc2)cc1,-0.796
21,COc1ccccc1C(=O)N1CCN(c2ccc(N3CCOCC3)nn2)CC1,-5.25
22,CCCN1CCC(NC(Cc2ccccc2)c2ccccc2)CC1 (stereo not drawn),1.88
23,COCCCN(Cc1cccs1)S(=O)(=O)c1csc(C(N)=O)c1,-1.23
24,CCOC(=O)c1cn(C)c(=O)c2ccccc12,-3.31
